Among all 370,000 compounds or so, about 150 (0.041%) were called active. The shares of active, inactive and inconclusive entries below differ from those in the screen. The call rests on the fitted dose curve; in most records, active means well fitted inhibition curve with a large enough effect; inconclusive means small, poorly fitted or top-dose-only effect; inactive means flat fitted curve, though single readings scatter. No potency is given beside an inconclusive call; the fits are too rough.
The molecules below were run against Beta-lactamase (Escherichia coli (strain K12)) (UniProt P00811) (assay: qHTS Inhibitors of AmpC Beta-Lactamase (assay with detergent)). Details: AmpC hydrolysis of nitrocefin, absorbance 480 nm, 0.01% Triton; series mostly up to 114 µM.
Chain of UniProt P00811 (P00811 whole entry, looked up): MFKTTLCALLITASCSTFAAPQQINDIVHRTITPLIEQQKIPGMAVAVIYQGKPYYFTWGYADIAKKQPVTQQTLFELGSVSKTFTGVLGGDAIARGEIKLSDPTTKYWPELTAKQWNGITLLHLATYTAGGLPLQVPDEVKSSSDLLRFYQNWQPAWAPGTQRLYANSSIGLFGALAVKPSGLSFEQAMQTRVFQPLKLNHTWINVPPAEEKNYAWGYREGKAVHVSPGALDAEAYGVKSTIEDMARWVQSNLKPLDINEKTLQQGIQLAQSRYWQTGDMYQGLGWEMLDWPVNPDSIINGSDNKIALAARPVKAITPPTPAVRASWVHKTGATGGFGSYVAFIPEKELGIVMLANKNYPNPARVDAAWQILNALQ
Method in brief: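 20 mM phosphate pH 7.0 + 0.01% (detergent screen) or 0.0001% Triton X-100; 5.3 nM AmpC reagent; cpd preinc 15 min RT; nitrocefin (800 uM stock) to start; A480 q20 s × 4 min; Activity was normalised to no-enzyme and no-compound control wells.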
Further: nearly all actives have a fitted effect of over 25% in size.
Potency means the concentration at half of the fitted maximal effect; tags describe the fitted curve by direction and shape.

Compound	Potency
O=C(CCSc1nnc(-c2ccncc2)o1)Nc1cccc2ccccc12	inconclusive [inhibitor, single point]
c1ccc(Cn2cnc3ccccc32)cc1	inconclusive [inhibitor, partial curve, poor fit]
COC(=O)c1ccc(/C=N/Nc2nc(-c3ccccc3)cs2)cc1	inactive
O=C(COC(=O)CNC(=O)c1ccc(Cl)cc1Cl)Nc1cccc(S(=O)(=O)N2CCCC2)c1	inactive
O=c1c2ccccc2cnn1Cc1ccc(Br)cc1F	inconclusive [inhibitor, partial curve]
O=C(NCc1ccncc1)c1nc(-c2cccs2)no1	inactive
O=C(CN1CCOCC1)c1ccc2cc[nH]c2c1	inactive
CCOC(=O)Cc1nc2ccccc2o1	inactive
COc1ccc(C)cc1NC(=O)C(NS(=O)(=O)c1cccs1)c1ccccc1 (stereo not drawn)	inactive
O=C(Nc1ccccc1OC(F)F)c1ccc(Br)o1	inconclusive [inhibitor, full curve, poor fit]
COc1ccc(NC(=O)Nc2ccccc2F)c([N+](=O)[O-])c1	inconclusive [inhibitor, single point]
CCOc1ccc(-c2cccc(NC(=O)COc3ccccc3)c2)nn1	inactive
COc1ccc(/C=C/C(=O)N2CCN(c3ccccn3)CC2)c(OC)c1OC	inactive
O=C(c1ccc(-c2ccccc2)c(F)c1)C1CCCN(CCO)C1 (stereo not drawn)	inactive
Nc1cc(C(=O)O)c(Oc2ccc(Cl)cc2Cl)cc1C(=O)O	inconclusive [inhibitor, partial curve, poor fit]
Cc1nc(Cc2nnc(SCC(=O)N(C)c3ccccc3)o2)cs1	inconclusive [inhibitor, full curve, poor fit]
COc1ccc2c(c1)C(C)CC(C)(C)N2C(=O)CSc1nc2ccccc2s1 (stereo not drawn)	inconclusive [inhibitor, full curve, poor fit]
CCOC(=O)C1CCN(C(=O)CSc2c3c(nc4ccccc24)CCC3)CC1	inconclusive [inhibitor, single point]
COc1ccc(C(=S)N2CCCCCC2)cc1	inconclusive [inhibitor, single point]
COc1cc(OC)c(NC(=O)Cc2c(C(=O)O)c(C)cn2C)cc1Cl	inactive
COc1ccc(/C=N/NC(=O)c2ccc(Cn3cc([N+](=O)[O-])cn3)o2)c(OC)c1C	inconclusive [inhibitor, full curve, poor fit]
O=C(COCc1cc(-c2ccc3c(c2)OCO3)on1)Nc1cccnc1	inconclusive [inhibitor, full curve, poor fit]
Cc1c(C(=O)c2cccc([N+](=O)[O-])c2)c2ccccn2c1CCC#N	inconclusive [inhibitor, single point]
CCc1nnc(NC(=O)CSc2nnc(-c3ccccc3OC)n2-c2ccccc2)s1	inconclusive [inhibitor, single point]

Compound	Potency
O=C(NC1CCCC1)c1ccc(CSc2nc3cccnc3n2Cc2cccc(F)c2)cc1	inactive
CC1CCCCC1NC(=O)CN1C(=O)NC(Cc2ccccc2)(Cc2ccccc2)C1=O (stereo not drawn)	inactive
Cc1ccc(S(=O)(=O)NCc2ccccn2)c(C)c1C	inactive
Clc1ccc(N2COC3c4cccc5cccc(c45)C32)cc1 (stereo not drawn)	inconclusive [inhibitor, single point]
CC(C)Cn1c(N)c(C(=O)NCC2CCCO2)c2nc3ccccc3nc21 (stereo not drawn)	inactive
CCOC(=O)CC(=O)CSc1nc2c(cc1C#N)CCC2	inconclusive [inhibitor, full curve, poor fit]
COc1cccc(C(=O)NCCS(=O)(=O)NCc2ccccn2)c1	inconclusive [inhibitor, partial curve, poor fit]
CCCNC(=O)C/C(C)=N/NC(=O)C(=O)Nc1ccccn1	inactive
O=C1C2C3C=CC(CC3)C2C(=O)N1/N=C/c1c(O)ccc2ccccc12 (stereo not drawn)	inactive
Nc1nc(SCC(=O)Nc2cc(-c3ccccc3)nn2-c2ccccc2)n[nH]1	inconclusive [inhibitor, single point]
O=C(Nc1ccc(C(F)(F)F)cc1)c1cnc(N2CCN(c3ccccn3)CC2)c2ccccc12	inactive
CCCCSCCCNC(=O)C1CCN(Cc2nc(-c3ccc(CC)cc3)oc2C)CC1	inactive
CN1C(=O)NC(c2ccc(Cl)cc2)C2=C1CC(C)(C)CC2=O (stereo not drawn)	inactive
O=C(Nc1ccc([N+](=O)[O-])cc1Br)c1cc2ccccc2nc1Cl	inactive
COc1cccc(/C=C2\Oc3cc(OCC(=O)N4CCC[C@H]4C(=O)O)ccc3C2=O)c1	inconclusive [inhibitor, partial curve]
O=C(CCl)Nc1ccc(-c2ccccc2)cc1	inactive
COc1ccc2[nH]cc(C(=O)CN3CCN(C(=O)c4ccco4)CC3)c2c1	inconclusive [inhibitor, partial curve, poor fit]
CC(C)NC1=C(Cl)C(=O)c2ccccc2C1=O	inconclusive [inhibitor, full curve, poor fit]
O=C(OCc1ccccc1F)c1cc([N+](=O)[O-])ccc1N1CCOCC1	inconclusive [inhibitor, full curve, poor fit]
CCSc1nnc(-c2cccnc2)n1-c1ccc(Cl)c(C)c1	inconclusive [inhibitor, full curve]
Cc1cc(NC(=O)CSc2ccc(F)cc2)no1	inconclusive [inhibitor, single point]
Fc1cccc(CN2CCN(Cc3nc(CCc4ccccc4)no3)CC2)c1	inactive
CCc1nc(C)cn1S(=O)(=O)c1cc(OC)c(C)cc1C	inconclusive [inhibitor, full curve, poor fit]
Cc1nnc(SCC(=O)NC(C)(C)C)n1NCc1ccc(N(C)C)cc1	inconclusive [inhibitor, full curve, poor fit]

— PubChem BioAssay AID485294 (National Center for Advancing Translational Sciences (NCATS), 2010)
